Measurements from PubChem BioAssay AID1159614 (National Center for Advancing Translational Sciences (NCATS), 2016).
Among all 45,000 compounds or so, about 65 (0.1%) were called active. The call rests on the fitted dose curve; in most records, active means well fitted activation curve with a large enough effect; inconclusive means small, poorly fitted or top-dose-only effect; inactive means no such curve, though single readings can be large or run the other way. The list shows a part of the results.

Each molecule was assayed against Galactocerebrosidase (Homo sapiens) (UniProt P54803) (assay: A Novel Cell-Based Assay to Identify Small Molecules for B -Galactocerebrosidase). Settings: 145M-Twi-hGALC-G270D cells (Twitcher mouse brain line with human GALC G270D), HMU-beta-Gal fluorescence, 48 h; series mostly up to 57.5 µM; activation: at the top concentration.
Procedure, shortened: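 Mutant human GALC (G270D), stably expressed in a Twitcher mouse brain cell line lacking endogenous GALC, is measured in live-treated cells via 6-hexadecanoylamino-4-methylumbelliferyl-β-galactoside hydrolysis (0.1 mM final, pH 5.2) with fluorescent detection.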
Further: 0% is about no effect; nearly all actives have a fitted effect of over 65% in size.

UniProt P54803, sequence (P54803 whole entry, looked up): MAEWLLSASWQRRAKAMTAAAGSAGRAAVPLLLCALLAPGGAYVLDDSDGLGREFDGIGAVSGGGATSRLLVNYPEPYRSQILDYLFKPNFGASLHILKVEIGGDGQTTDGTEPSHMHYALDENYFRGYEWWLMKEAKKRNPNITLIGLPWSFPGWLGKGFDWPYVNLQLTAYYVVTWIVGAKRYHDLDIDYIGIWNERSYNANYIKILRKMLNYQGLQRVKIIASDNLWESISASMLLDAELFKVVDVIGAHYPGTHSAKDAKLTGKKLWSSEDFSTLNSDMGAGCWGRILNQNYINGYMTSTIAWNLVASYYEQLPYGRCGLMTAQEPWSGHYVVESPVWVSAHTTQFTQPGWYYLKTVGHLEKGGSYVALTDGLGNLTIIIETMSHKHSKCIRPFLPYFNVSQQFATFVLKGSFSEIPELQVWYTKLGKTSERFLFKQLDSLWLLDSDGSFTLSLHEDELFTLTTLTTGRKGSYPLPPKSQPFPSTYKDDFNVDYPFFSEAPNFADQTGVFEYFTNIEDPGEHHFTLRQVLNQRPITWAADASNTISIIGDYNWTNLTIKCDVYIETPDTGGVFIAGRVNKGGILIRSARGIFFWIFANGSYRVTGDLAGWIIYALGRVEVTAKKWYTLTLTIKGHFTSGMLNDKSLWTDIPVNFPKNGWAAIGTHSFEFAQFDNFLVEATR

**Q.** With `COc1ccc(CCNC(=O)Cc2c(C)c3c(cc(C)c4c(C)c(C)oc43)oc2=O)cc1OC` as the molecule, how does the “activation” value read?
**A.** inactive: -10.7%

**Q.** Which “activation” value does the source give for `Cc1ccc(S(=O)(=O)c2nc(-c3ccco3)oc2SC(C)C)cc1` here?
**A.** inactive: -14.8%

**Q.** With `CCOc1ccc(CNC(=O)CN2C(=O)CCn3nc(-c4cn(C)c5ccccc45)cc32)cc1OC` as the molecule, how does the “activation” value read?
**A.** inactive: -8.33%

**Q.** How did the “activation” value turn out when `CC(C)OC(=O)c1cc2c(OCC(O)CNC(C)(C)C)cccc2[nH]1` (stereo not drawn) was run?
**A.** inactive: -13.8%

**Q.** Which “activation” value does the source give for `CCCn1c2ccccc2c2cnn(CC(=O)Nc3cccc(C(=O)OCC)c3)c(=O)c21` here?
**A.** inactive: -3.91%

**Q.** How did the “activation” value turn out when `O=C(NCc1cccs1)c1nn(-c2ccccc2)nc1CO` was run?
**A.** inactive: -10.2%

**Q.** With `CCOc1ccc(NC(=O)CSc2cc(C)c3ccccc3n2)cc1` as the molecule, how does the “activation” value read?
**A.** inactive: -6.18%

**Q.** With `Cn1c(=O)c2c(nc(SCC(=O)Nc3ccc(F)cc3F)n2Cc2ccccc2)n(C)c1=O` as the molecule, how does the “activation” value read?
**A.** inactive: 4.26%

**Q.** How did the “activation” value turn out when `Cc1c(C)n(Cc2ccc(F)cc2)c2ccc(C(=O)N3CCN(c4ccc(Cl)cc4)CC3)cc12` was run?
**A.** inactive: -12.2%

**Q.** For `COc1ccc(/C=C/C(=O)Nc2ccc3nc(N4CCC(C)CC4)cc(C)c3c2)cc1OC`, which “activation” value is on record?
**A.** inactive: -20.1%

**Q.** `CC1(C(=O)NC2CCCCC2)Cc2ccccc2C(=O)N1Cc1ccc(Cl)cc1` (stereo not drawn) was tested. Which “activation” value did it give?
**A.** inactive: -14.5%

**Q.** Which “activation” value does the source give for `COc1cccc(C2C(C(=O)Nc3ccc(Cl)cc3)=C(C)Nc3c(C(=O)Nc4ccccc4)cnn32)c1OC` (stereo not drawn) here?
**A.** inactive: -3.37%

**Q.** `Cc1cc(C)cc(NC(=O)c2sc3nc(-c4ccccc4)cn3c2C)c1` was tested. Which “activation” value did it give?
**A.** inactive: -7.17%

**Q.** For `CC(=O)Nc1nonc1-c1nnc(SCc2ccc(F)cc2Cl)n1C`, which “activation” value is on record?
**A.** inactive: -8.68%

**Q.** How did the “activation” value turn out when `CN1CC(=O)N/C1=N/C(=O)Nc1cccc(Cl)c1` was run?
**A.** inactive: -10.4%

**Q.** `CCOC(=O)c1cccc(NC(=O)CCS(=O)(=O)c2ccc(Br)s2)c1` was tested. Which “activation” value did it give?
**A.** inactive: -11.2%

**Q.** `Cc1ccc(NC(=O)CN2Cc3ccccc3C2=O)c(C)c1` was tested. Which “activation” value did it give?
**A.** inactive: -5.59%

**Q.** Which “activation” value does the source give for `CCC(C)NC(=O)Cn1c(=O)n(CCCC(=O)NCc2ccc(C)cc2)c(=O)c2ccccc21` (stereo not drawn) here?
**A.** inactive: -8.58%

**Q.** For `Cc1cn2c(=O)cc(COc3cc(C)c(Cl)c(C)c3)nc2s1`, which “activation” value is on record?
**A.** inactive: -10.3%

**Q.** With `CC1CCCCN1S(=O)(=O)c1ccc(F)c(C(=O)Nc2ccccc2C(F)(F)F)c1` (stereo not drawn) as the molecule, how does the “activation” value read?
**A.** inactive: 11.7%

**Q.** How did the “activation” value turn out when `CCOC(=O)C1CCN(c2cc3c(cc2NC(=O)c2ccc(OC)c(OC)c2)n(C)c(=O)n3C)CC1` was run?
**A.** inactive: -15.7%

**Q.** For `COC(=O)c1ccccc1C(=O)c1ccc(OCCN2CCCCC2)cc1`, which “activation” value is on record?
**A.** inactive: -21.9%

**Q.** Which “activation” value does the source give for `Cc1cc(=O)n(Cc2cccc(Br)c2)c2c1c(C)nn2-c1ccccc1` here?
**A.** inactive: -8.16%

**Q.** With `Cc1cc(Cl)ccc1NS(=O)(=O)c1ccc2c(c1)CCN2S(C)(=O)=O` as the molecule, how does the “activation” value read?
**A.** inactive: -21.1%

**Q.** Which “activation” value does the source give for `COc1ccc(S(=O)(=O)N2CCN(Cc3nc4ccc(C)cc4o3)CC2)cc1OC` here?
**A.** inactive: -18.3%

**Q.** How did the “activation” value turn out when `Cc1cccc(CNC(=O)Cc2csc3ccccc23)c1` was run?
**A.** inactive: -16.8%

**Q.** Which “activation” value does the source give for `CCOc1cc2sc(N3CCC(C(=O)Nc4ccc(C(C)C)cc4)CC3)nc2cc1Br` here?
**A.** inactive: -23.5%

**Q.** Which “activation” value does the source give for `CCOc1ccc(NC(=O)CN(c2ccccc2OCC)S(=O)(=O)c2ccccc2)cc1` here?
**A.** inactive: -11.8%

**Q.** For `N#Cc1ccc(OC(=O)c2cc(-c3ccc4c(c3)OCCO4)on2)cc1`, which “activation” value is on record?
**A.** inactive: -17.6%

**Q.** For `CCc1ccc(Sc2cc(C(=O)NCCCOC(C)C)c3ccccc3n2)cc1`, which “activation” value is on record?
**A.** inactive: -35.7%

**Q.** How did the “activation” value turn out when `CCOC(=O)c1oc2ccc(S(=O)(=O)n3nc(-c4cc(OC)cc(OC)c4)cc3N)cc2c1C` was run?
**A.** inactive: -6.9%

**Q.** `CC(=O)Nc1ccc(-n2c(CCC(=O)O)ccc2-c2ccc(C)cc2)cc1` was tested. Which “activation” value did it give?
**A.** inactive: -3.35%

**Q.** With `CCc1ccccc1NC(=O)C1COc2ccccc2C1` (stereo not drawn) as the molecule, how does the “activation” value read?
**A.** inactive: -13%

**Q.** `Cn1cnc(S(=O)(=O)N2CCC(C(=O)N3CCN(c4ccc(Cl)cc4)CC3)CC2)c1` was tested. Which “activation” value did it give?
**A.** inactive: -6.22%

**Q.** How did the “activation” value turn out when `N#C/C(=C\c1ccccc1)C(=O)Nc1sc2c(c1C(N)=O)CCC2` was run?
**A.** inactive: -30.8%

**Q.** `COc1cccc(C2C(C(=O)Nc3ccccc3)=C(C)Nc3nnnn32)c1OC` (stereo not drawn) was tested. Which “activation” value did it give?
**A.** inactive: -3.3%

**Q.** For `N[C@H](C(=O)O)[C@@H](O)c1ccc(O)c(O)c1`, which “activation” value is on record?
**A.** inactive: -13.2%

**Q.** `Cc1ccc(NC(=O)CSc2nc3c(oc4ccccc43)c(=O)n2Cc2ccco2)cc1` was tested. Which “activation” value did it give?
**A.** inactive: -19.7%

**Q.** Which “activation” value does the source give for `CCCn1c(=O)c2sccc2n2c(CCCC(=O)N3CCN(c4cccc(C)c4C)CC3)nnc12` here?
**A.** inactive: 1.65%

**Q.** Which “activation” value does the source give for `Cc1cc2nc(-c3ccc(Br)cc3)cc(C(F)(F)F)n2n1` here?
**A.** inactive: -18.7%

**Q.** `CCOC(=O)C1CCN(C(=O)Cn2nc(C)n3c(cc4cc(C)ccc43)c2=O)CC1` was tested. Which “activation” value did it give?
**A.** inactive: 4.23%

**Q.** How did the “activation” value turn out when `COc1ccc(CCn2c(=O)c3cccnc3n(CC(=O)Nc3cccc(C)c3)c2=O)cc1OC` was run?
**A.** inactive: 14.7%

**Q.** `COc1ccc(S(=O)(=O)NCc2ccc3c(c2)CCN3C(=O)c2ccc(C)cc2)cc1Cl` was tested. Which “activation” value did it give?
**A.** inactive: -8.9%

**Q.** How did the “activation” value turn out when `CC(=O)N(Cc1cccnc1)c1nc2c(C)cccc2s1` was run?
**A.** inactive: -11.6%

**Q.** Which “activation” value does the source give for `Cn1cc(-c2cc3n(n2)CCC(=O)N3CCCC(=O)Nc2ccc(F)cc2F)c2ccccc21` here?
**A.** inactive: 1.53%

**Q.** How did the “activation” value turn out when `Cc1cc(C)cc(-n2ccnc2SCC(=O)Nc2ccc3c(c2)OCO3)c1` was run?
**A.** inactive: -27.4%

**Q.** `CCc1ccc(N2CCn3c2nc2c3c(=O)n(Cc3c(F)cccc3Cl)c(=O)n2C)cc1` was tested. Which “activation” value did it give?
**A.** inactive: -4.07%

**Q.** For `Cc1nnc2c(N3CCN(c4ccccc4)CC3)nc3ccc(C(=O)c4ccccc4)cc3n12`, which “activation” value is on record?
**A.** inactive: -15.9%

**Q.** For `Cc1ccc2nc(NS(=O)(=O)c3ccc(Cl)cc3)c(Nc3ccc(C(=O)O)cc3)nc2c1`, which “activation” value is on record?
**A.** inactive: -13.7%

**Q.** `CCc1ccc(-c2cn3c(n2)sc2cc(C(=O)NCC(C)c4ccccc4)ccc23)cc1` (stereo not drawn) was tested. Which “activation” value did it give?
**A.** inactive: -9.83%

**Q.** For `Cc1nc2c(C(=O)NCCc3ccc(Cl)cc3)c[nH]n2c(=O)c1Cc1ccccc1F`, which “activation” value is on record?
**A.** inactive: -11.7%

**Q.** `Cn1c(=O)c2sccc2n2c(CCC(=O)N3CCN(c4cccc(Cl)c4)CC3)nnc12` was tested. Which “activation” value did it give?
**A.** inactive: -3.58%

**Q.** For `O=C(C1CC1)N1CCc2cc(Br)cc(S(=O)(=O)N3CCN(c4ccccc4)CC3)c21`, which “activation” value is on record?
**A.** inactive: -14.5%

**Q.** For `OCc1cccnc1`, which “activation” value is on record?
**A.** inactive: -9.8%

**Q.** How did the “activation” value turn out when `CCc1ccc(NS(=O)(=O)c2ccc(C(=O)N(C)C)s2)cc1` was run?
**A.** inactive: -32%

**Q.** With `CCOc1ccc(/C=C(\C#N)C(=O)Nc2sc3c(c2C(=O)OC)C(C(=O)OC)CC3)cc1OC` (stereo not drawn) as the molecule, how does the “activation” value read?
**A.** inactive: 2.13%

**Q.** For `Cc1c(CNCCc2ccc(S(N)(=O)=O)cc2)c(C(=O)O)c(C)n1Cc1ccc(Cl)cc1`, which “activation” value is on record?
**A.** inactive: -10.1%

**Q.** How did the “activation” value turn out when `CCCCOC(=O)c1ccc(Nc2nc3ccccc3c3nnc(C)n23)cc1` was run?
**A.** inactive: 5.19%

**Q.** With `CCCCC(=O)Nc1nnc(S(=O)(=O)N(CC)c2cc(C)cc(C)c2)s1` as the molecule, how does the “activation” value read?
**A.** inactive: -19.3%

**Q.** Which “activation” value does the source give for `CCc1ccccc1NC(=O)Cn1nnc(C(=O)NCc2cccs2)c1N` here?
**A.** inactive: -11%

**Q.** For `CN(C(=O)CSc1nc2ccccc2n1CC(=O)N(C)c1ccc(F)cc1)c1ccccc1`, which “activation” value is on record?
**A.** inactive: -14.7%

**Q.** With `CCN(c1ccccc1)S(=O)(=O)c1ccc(F)c(C(=O)Nc2ccc(C)cc2)c1` as the molecule, how does the “activation” value read?
**A.** inactive: -2.47%

**Q.** For `CCOc1ccc(Nc2oc(-c3ccc(COc4ccccc4C)o3)nc2C#N)cc1`, which “activation” value is on record?
**A.** inactive: -12.5%
